Source: the RNAGym collection of RNA variant scans (doi:10.7554/elife.90254)
Read counts are not given, so values of variants with three or more changes are uncertain.

B1: LINE1-mini (parent)
chain: GGCAGAGCUCAACACAGCGUGGCAAAGUGGCUGUGGCUAGACUGCC

Variants of: B1
Test: self-cleavage, relative activity (ratio to wild type); higher = more cleavage; in vitro, sequencing; the parent is a self-cleaving ribozyme
Variant GGUAGAGCUCAACACAGCGUGGCAAAGUGGCUGUGACUAAACUGCC [C3U G36A G40A] has a self-cleavage of 0.26.
Work on GGUAGAGCUCAACAAAGCGUGGCAAAGUGGCUGUGGAUAGACUGCC [C3U C15A C37A] yielded a self-cleavage of 0.18.
Variant GGUAAUGGUCAACACAGCGUGGCAAAGUGGCUGUGGCUAGACUGCC [C3U G5A A6U C8G] has a self-cleavage of 0.06.
GGUAGAGCUCAACACAGCGUGGCAAAGUGGCUGUGGCUAGAAAGCC [C3U C42A U43A] gave a self-cleavage of 0.09.
Variant GGUAGAGCUCAACACAGCGUGGAAAAGUGGCCGUGGCUAGACUGCC [C3U C23A U32C] has a self-cleavage of 0.28.
GGUAGAGCUCAACAGUGCGUGGCAAAGUGGCUGUGGCUAGACUGCC [C3U C15G A16U] showed a self-cleavage of 0.01.
For GGUAGAGCUCAACACAGCGUGGCAAAUUGGCUGUGCCUCGGCUGCC [C3U G27U G36C A39C A41G], the self-cleavage was 0.38.
GGUAGAGCUCAACACAGCUUGGCAAAGUGGCUGUGGCUGGACUGCA [C3U G19U A39G C46A] showed a self-cleavage of 0.06.
In the case of GGUAGAGCUCAACACAUCGUGGCGAAGUAGCUGUGGCUAGACUGCC [C3U G17U A24G G29A], the self-cleavage is reported as 0.56.
In the case of GGUAGAGCUCAACACAGCGUCGAAAAGGGGCUGUGGCUAGACUGCC [C3U G21C C23A U28G], the self-cleavage is reported as 0.09.
Work on GGUAGAGCUCAACACAGCGUGGCAAAGUGGCUGUGGUUAGACUGUC [C3U C37U C45U] yielded a self-cleavage of 0.05.
In the case of GGUACAGCUCAACACAGCGUGGCAAAGUGGCUUUGGCUAGACUGCA [C3U G5C G33U C46A], the self-cleavage is reported as 0.02.
GGUAGACCUUAACACAGCUUGGCAAAGUGGCUGUGGCUAGACGGCC [C3U G7C C10U G19U U43G] showed a self-cleavage of 0.02.
Work on GGUAGACGUCAACACAGCGUGGCAAAGGGGGUGUGGCUAGACUGCC [C3U G7C C8G U28G C31G] yielded a self-cleavage of 0.07.
With GGUAGAGCUCAACACAGCGUGGAAAAGUGGCUGUUGCUAGACUGUC [C3U C23A G35U C45U] the self-cleavage was 0.22.
In the case of GGUAGAGCUCAACACAGCGUGGCAAAGUGCCUAUGGCUAGGCUGCC [C3U G30C G33A A41G], the self-cleavage is reported as 0.05.
GGUACAGCUCAUCACAGCGUGGCAACGUGGCUGUGGCUAGACUGCC [C3U G5C A12U A26C] gave a self-cleavage of 0.06.
GGUAGAGCUCAACACAGGGUGGCAAAGUGGUUGACGCUAGACUCCC [C3U C18G C31U U34A G35C G44C] gave a self-cleavage of 0.02.
For GGUAAAGCUCAACACAGCGUGGCAAACUGGCUGUGCCUAGACUGCC [C3U G5A G27C G36C], the self-cleavage was 0.19.
GGUAAAGCUCAACACAGCGUGGCAAAGUGGCUGUGGCUAUACUGAU [C3U G5A G40U C45A C46U] showed a self-cleavage of 0.09.
In the case of GGUAGAGCUCAACACAGCGUGACAAAGUGGAUGUGGCUAAACUGCC [C3U G22A C31A G40A], the self-cleavage is reported as 0.01.
GGUAGAGCUCAACACAGCGUGGCAAAGUGGCUGUGGCUAGACUCCA [C3U G44C C46A] gave a self-cleavage of 0.07.
GGUACAGCUAAAUACAGCGUGGCAGAGUGGCUGUGGCUAGACUACC [C3U G5C C10A C13U A25G G44A] showed a self-cleavage of 0.02.
Work on GGUAGAUCUCAACACAGCGGGGCAAAGUGGCUGCGGCUUGACCGCC [C3U G7U U20G U34C A39U U43C] yielded a self-cleavage of 0.02.
GGUACAGCUCAACACCGCGUGGCAAAGUGGCUGUGGCUAUACUGCC [C3U G5C A16C G40U] gave a self-cleavage of 0.03.
Work on GGUAGAUCUCAACACAGAGUGGCAAAGUGACUGUGGCUAAACUGCC [C3U G7U C18A G30A G40A] yielded a self-cleavage of 0.12.
In the case of GGUAGAGCUCAACAUAGCGGGGUAAAGUCGCUGUGGCUAGACUGCC [C3U C15U U20G C23U G29C], the self-cleavage is reported as 0.85.
For GGUAGAGCUCAACACAGCGUGGAAAAGUGGCUGUGGCUGGACUGCA [C3U C23A A39G C46A], the self-cleavage was 0.13.
For GGUAGAGCUCAACAUAGCGUGGCAAAGUGGCUGUGGCUAGACAGCC [C3U C15U U43A], the self-cleavage was 0.02.
With GGUAGAGCUCAACACAGCGUGGCAAAGUGGCUAUGGCUAGUCUGCC [C3U G33A A41U] the self-cleavage was 0.08.
GGUAAAGCUCAACACAGCGUGGCAAAGUGGCUGUGGCCAGACUGCC [C3U G5A U38C] gave a self-cleavage of 0.1.
For GGUAAAGCGCAGCACAGCGUGGCAAAGUGGCUGUUGCUAGUCUGCC [C3U G5A U9G A12G G35U A41U], the self-cleavage was 0.01.
For GGUAAAGCUCAACACAGCGUGGCAAAGUGGCUGUUGCUAAACUGCC [C3U G5A G35U G40A], the self-cleavage was 0.04.
In the case of GGUAGAGCUCAACACAGCGUGGCAAAGUGCCUGCGGCUAGACUGCC [C3U G30C U34C], the self-cleavage is reported as 0.08.
Work on GGUAGAGCUCAACACAGCGUUGCAAAGAGGCUGUGGCUAGACUGCC [C3U G21U U28A] yielded a self-cleavage of 0.06.
For GGUAGAGCUCAACACAGCGUUGCAAAGUUGCUGUGGCUAGACUGCC [C3U G21U G29U], the self-cleavage was 0.86.
GGUAGAGCUCAACACAGCGUGGCAAAGUAGCUGUGCCUAGACUGCC [C3U G29A G36C] gave a self-cleavage of 0.31.
In the case of GGUACAGCUCUAAACAGCGUGGUAAAGUGGCUGUGGCUAGACUGCC [C3U G5C A11U C13A C23U], the self-cleavage is reported as 0.02.
Variant GGUAGAGCUCAACACAGCCUGGAAAAGUGGCUGUGGCUAGACUCCC [C3U G19C C23A G44C] has a self-cleavage of 0.24.
GGUAGAGCUCAACAAAGCGUGGCAAAGUGUCUGUGGCUAGAGUGUC [C3U C15A G30U C42G C45U] showed a self-cleavage of 0.08.
GGUAGAGCUCAACACAGAGUGGCAAAGUGGCCGUGGCUAGACAGCC [C3U C18A U32C U43A] gave a self-cleavage of 0.
GGUAGAGCUCAACACAACGUGGCGAAGUGACUGUGGAUAGACUGCA [C3U G17A A24G G30A C37A C46A] gave a self-cleavage of 0.1.
GGUAGACCUCAACACAGCGUGGCAAAUUGGAUAUGGCUAGACUGCC [C3U G7C G27U C31A G33A] showed a self-cleavage of 0.02.
GGUAGAGCUCAACACAGCGUGGCAAAGUGGCUGUGGCUAAACUACC [C3U G40A G44A] gave a self-cleavage of 0.43.
Variant GGUAAAACUCAACACAGCGUGGCAAAGUGGCUGUGGCUAGACUGCC [C3U G5A G7A] has a self-cleavage of 1.06.
Work on GGUAUAGCUCAACACAGUGUGGCAAAGUCGCGGUGGCUAGACUGCC [C3U G5U C18U G29C U32G] yielded a self-cleavage of 0.02.
For GGUAUAGCUGAACACAGCGUGGCAAAGUGUCUGUGGCUAGACUGCC [C3U G5U C10G G30U], the self-cleavage was 0.01.
Work on GGUAAAGCUCAACUCAGCGUUGCAAAGUGGCUGUGGCUAGACUGCC [C3U G5A A14U G21U] yielded a self-cleavage of 0.19.
In the case of GGUACAGCCCCACACAGCGUGCCAAUGUGGCUGUGGAUAGACUGCC [C3U G5C U9C A11C G22C A26U C37A], the self-cleavage is reported as 0.01.
In the case of GGUAGAGCUCAACACAGCGUGGCAAAGUGGCUGUGGGUAGACUGCA [C3U C37G C46A], the self-cleavage is reported as 0.05.
In the case of GGUAGAGCUCAACACAGCGUGGCAAAGUGAGUGUGGCUAGGCUACC [C3U G30A C31G A41G G44A], the self-cleavage is reported as 0.11.
GGUAAAGCUCAACACAGCGUGGCAAAGUGGGUGUGGCUAGACUGCC [C3U G5A C31G] gave a self-cleavage of 0.1.
Work on GGUAGAUCUGAACACAGCACUGCAAAGUGGCUGUGGUUAGAUUGCC [C3U G7U C10G G19A U20C G21U C37U C42U] yielded a self-cleavage of 0.01.
Work on GGUAGAGCUCAACACAGCGUGGCAAAGUGUCUCUGGCUAGACUGCC [C3U G30U G33C] yielded a self-cleavage of 0.05.
In the case of GGUACAGCUCAACACAGCGUGGCAAAGUGGCUGUGGCGAGACUGCC [C3U G5C U38G], the self-cleavage is reported as 0.03.
Variant GGUAGAGCUCAACACAGCGUGGCAAAGUGACUAUGGCUAGACUGCC [C3U G30A G33A] has a self-cleavage of 0.1.
